According to the supplement of paper PMC3334620:
Over roughly 33,000 sequences, “E-score (-0.5 to 0.5)” has its median near -0.053; the highest 2% begin near 0.37. Some of the results follow.

The sequences below were run against Hap1 (UniProt P0CE41) (assay: PBM E-score (8-mer binding enrichment) (E-score (-0.5 to 0.5)); higher = stronger / more preferred TF binding; most listed sequences are background and not binding sites). Conditions: protein concentration: 200 nM; construct: GST-DNA-binding domain.
In short: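 The E-score, a modified Wilcoxon-Mann-Whitney statistic, was computed by the Universal PBM Analysis Suite for every ungapped eight-base word pooled with its reverse complement. Scans behind it were normalised with masliner after bound GST-tagged yeast transcription factors were detected with fluorescent anti-GST. The proteins, at about 100-200 nM, had been applied to universal all-10-mer Agilent arrays made double-stranded by primer extension.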

Sequence of UniProt P0CE41 (P0CE41 whole entry, the tested form may be a part): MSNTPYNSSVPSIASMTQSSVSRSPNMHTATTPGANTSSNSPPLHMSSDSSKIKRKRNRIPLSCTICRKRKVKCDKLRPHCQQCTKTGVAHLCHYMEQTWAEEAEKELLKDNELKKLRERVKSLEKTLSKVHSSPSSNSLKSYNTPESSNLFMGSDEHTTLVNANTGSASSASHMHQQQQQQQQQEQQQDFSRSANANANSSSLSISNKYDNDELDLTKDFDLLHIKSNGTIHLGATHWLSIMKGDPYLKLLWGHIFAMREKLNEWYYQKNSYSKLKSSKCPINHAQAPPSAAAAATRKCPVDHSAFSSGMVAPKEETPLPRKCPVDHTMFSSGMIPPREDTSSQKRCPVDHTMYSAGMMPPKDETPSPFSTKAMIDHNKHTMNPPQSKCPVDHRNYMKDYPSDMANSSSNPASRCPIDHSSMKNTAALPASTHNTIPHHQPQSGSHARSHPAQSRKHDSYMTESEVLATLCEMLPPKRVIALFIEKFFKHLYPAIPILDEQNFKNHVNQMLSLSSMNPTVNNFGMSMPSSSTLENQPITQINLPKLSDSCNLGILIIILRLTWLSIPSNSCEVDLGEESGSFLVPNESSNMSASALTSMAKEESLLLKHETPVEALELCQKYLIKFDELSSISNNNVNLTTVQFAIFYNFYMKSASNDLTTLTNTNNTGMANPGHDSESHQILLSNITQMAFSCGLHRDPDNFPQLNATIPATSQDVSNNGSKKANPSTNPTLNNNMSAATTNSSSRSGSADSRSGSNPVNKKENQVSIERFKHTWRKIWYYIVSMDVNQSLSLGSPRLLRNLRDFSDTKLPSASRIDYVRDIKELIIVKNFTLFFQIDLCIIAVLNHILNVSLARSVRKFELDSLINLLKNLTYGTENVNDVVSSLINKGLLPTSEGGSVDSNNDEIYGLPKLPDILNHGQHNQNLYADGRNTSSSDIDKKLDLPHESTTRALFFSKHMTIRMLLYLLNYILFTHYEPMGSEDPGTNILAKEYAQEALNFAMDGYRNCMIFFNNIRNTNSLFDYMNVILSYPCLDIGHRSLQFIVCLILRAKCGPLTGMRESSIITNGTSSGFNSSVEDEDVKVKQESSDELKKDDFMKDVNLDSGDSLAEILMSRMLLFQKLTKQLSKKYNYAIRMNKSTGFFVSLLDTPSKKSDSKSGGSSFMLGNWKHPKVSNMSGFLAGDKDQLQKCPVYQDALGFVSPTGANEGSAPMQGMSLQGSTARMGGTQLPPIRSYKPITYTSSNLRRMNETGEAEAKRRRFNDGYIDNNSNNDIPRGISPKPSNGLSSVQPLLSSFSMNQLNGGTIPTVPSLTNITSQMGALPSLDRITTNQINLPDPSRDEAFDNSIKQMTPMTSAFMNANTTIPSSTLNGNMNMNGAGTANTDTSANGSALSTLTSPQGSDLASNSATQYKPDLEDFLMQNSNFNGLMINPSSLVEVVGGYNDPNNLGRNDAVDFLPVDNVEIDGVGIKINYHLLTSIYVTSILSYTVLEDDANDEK

Compared with GCGATGCA, GAAGATCA is higher in “PBM E-score” value: -0.109 for the first, -0.0794 for the second.

Compared with CGAACAGA, ACCGACAT is higher in “PBM E-score” value: 0.117 for the first, 0.194 for the second.

Going from GTCGCGAA to ACCAAACC, the “PBM E-score” value falls from 0.173 to 0.0716.

Compared with GAGAGCCA, CCGGGTTC is higher in “PBM E-score” value: -0.245 for the first, 0.296 for the second.

Compared with TATCCGAA, GCCAGGTA is lower in “PBM E-score” value: 0.364 for the first, -0.0688 for the second.

First: CCAGGCTC
Second: AAGATCAC
The “PBM E-score” value of the first is lower: -0.126 for the first, -0.0442 for the second.

Compared with AAGGGCTA, CGAGGATC is higher in “PBM E-score” value: -0.143 for the first, 0.0403 for the second.

Compared with GGGTGACC, CCTGGGAG is lower in “PBM E-score” value: 0.0667 for the first, -0.117 for the second.

Going from CAAAACAA to GACATTCC, the “PBM E-score” value rises from -0.35 to -0.178.

Going from AGGCGCTA to CCGCCCAC, the “PBM E-score” value rises from -0.108 to 0.135.

Going from CTTGCACC to ACGCACAG, the “PBM E-score” value falls from 0.00658 to -0.00766.

First: CACTCATG
Second: CACCGTTA
The “PBM E-score” value of the first is lower: -0.231 for the first, 0.22 for the second.

Compared with AGGCTAAA, GTCTATGA is higher in “PBM E-score” value: -0.122 for the first, -0.0967 for the second.

Going from CCGGCAAG to AAATATTG, the “PBM E-score” value falls from 0.269 to 0.0436.

Going from AATGATTA to AAGGATCC, the “PBM E-score” value rises from -0.134 to -0.0435.

Going from CGTCTCGA to GGCGACAC, the “PBM E-score” value rises from -0.0828 to 0.247.

Going from AGTTCATC to AAGGATGT, the “PBM E-score” value falls from -0.0429 to -0.211.

Going from GGCGGGTA to ACGGCAGG, the “PBM E-score” value falls from 0.0692 to -0.0803.

Going from ATTTACTA to GTATATGA, the “PBM E-score” value falls from 0.0715 to -0.0527.

Going from CCGGATAA to GGGTTCAA, the “PBM E-score” value falls from 0.435 to -0.0262.

Going from ATTTTTCG to CTCTCCCA, the “PBM E-score” value falls from 0.137 to -0.17.

Going from GTTGGAGA to GTTGTGAA, the “PBM E-score” value falls from -0.195 to -0.271.

First: ACGGGAAT
Second: CTATTGTC
The “PBM E-score” value of the first is higher: 0.314 for the first, -0.0302 for the second.

First: ACCAAGTA
Second: TCCTCTCA
The “PBM E-score” value of the first is higher: -0.248 for the first, -0.35 for the second.

First: GATGGAAA
Second: CTGTTCGC
The “PBM E-score” value of the first is higher: -0.041 for the first, -0.0655 for the second.

Going from GTTACTAA to GCCCACCC, the “PBM E-score” value rises from -0.139 to 0.0486.

Going from CTGGGGTA to ATACCGTA, the “PBM E-score” value rises from -0.0554 to 0.092.

Compared with CTTAGATA, GGGTCTAA is higher in “PBM E-score” value: -0.059 for the first, 0.0639 for the second.

Going from GTCGGGTA to ATGGCCAT, the “PBM E-score” value falls from 0.189 to -0.0437.

First: AATCGCCT
Second: CCAAACTC
The “PBM E-score” value of the first is higher: 0.0771 for the first, -0.0976 for the second.

First: AACGCTCG
Second: GATGGGGC
The “PBM E-score” value of the first is higher: 0.0839 for the first, 0.0213 for the second.

Compared with ACCCGCGC, CGACCTAC is lower in “PBM E-score” value: 0.192 for the first, -0.0851 for the second.

First: GGCCTACA
Second: CCGTACAG
The “PBM E-score” value of the first is higher: 0.0465 for the first, 0.0165 for the second.

Going from AAAATCGC to CGGGGAAC, the “PBM E-score” value rises from 0.0477 to 0.201.

Going from TGTGTAAA to ACCGTAGT, the “PBM E-score” value rises from -0.0404 to 0.197.

Going from AACAATCA to ATGAATTC, the “PBM E-score” value falls from -0.0737 to -0.0929.

Going from AAACCCAA to CAATCACA, the “PBM E-score” value falls from -0.0811 to -0.141.

Going from ATCATAGG to ACCCGAAG, the “PBM E-score” value rises from -0.0747 to 0.248.

First: CACTTTCC
Second: GCGTTAGC
The “PBM E-score” value of the first is higher: 0.134 for the first, 0.00463 for the second.

Compared with TGTTCAAA, AGGTGTCA is higher in “PBM E-score” value: -0.113 for the first, -0.00168 for the second.

First: GGGTGCGA
Second: CCATACAA
The “PBM E-score” value of the first is higher: -0.0585 for the first, -0.152 for the second.

First: GTTCAGGA
Second: AAAAATCA
The “PBM E-score” value of the first is lower: -0.158 for the first, -0.15 for the second.

Going from CCGAAAAA to GAGACGAC, the “PBM E-score” value falls from 0.398 to -0.0276.

Going from CAAATTAC to CTTAGGAA, the “PBM E-score” value falls from 0.0167 to -0.0607.

Compared with GACGTTAA, TCAACTAA is lower in “PBM E-score” value: 0.149 for the first, -0.129 for the second.

Compared with ACGATAGG, AGAGTAAC is lower in “PBM E-score” value: 0.0214 for the first, -0.0196 for the second.

Compared with GTCTGGCA, AACTTAGG is lower in “PBM E-score” value: 0.0695 for the first, -0.269 for the second.

First: TAGGGAAA
Second: CTGTGTAA
The “PBM E-score” value of the first is higher: -0.056 for the first, -0.235 for the second.

Going from AATCATAT to CAGGATAC, the “PBM E-score” value falls from -0.127 to -0.181.

Compared with CTTTCATA, AAGCCTCC is lower in “PBM E-score” value: -0.048 for the first, -0.0993 for the second.

First: GTGACAAC
Second: GCTAGAGA
The “PBM E-score” value of the first is higher: -0.0971 for the first, -0.195 for the second.

First: CCGGCGCC
Second: AAAATAGG
The “PBM E-score” value of the first is higher: 0.359 for the first, 0.0822 for the second.

Going from GAGATGAA to GAAAGACC, the “PBM E-score” value falls from 0.0406 to 0.0171.

Going from CGACTCTC to ACGGTTCG, the “PBM E-score” value rises from -0.0357 to 0.215.

Compared with CTTGATTA, CTATATCA is lower in “PBM E-score” value: -0.127 for the first, -0.183 for the second.

Going from AAATTCGG to GGTGGACA, the “PBM E-score” value falls from 0.24 to 0.128.

First: ATAGAGTG
Second: ACGTTCGA
The “PBM E-score” value of the first is higher: -0.0777 for the first, -0.21 for the second.

Compared with AAAATGTA, ATGACCAG is lower in “PBM E-score” value: -0.0358 for the first, -0.198 for the second.

Going from AGATGAAC to CGGGGTTA, the “PBM E-score” value rises from -0.115 to 0.485.

First: GGTTGCGA
Second: AAGTTGCG
The “PBM E-score” value of the first is higher: -0.0421 for the first, -0.0881 for the second.

Going from AATGTTGC to ATAGCAAT, the “PBM E-score” value rises from -0.098 to -0.00748.

Going from CCCGCTCC to CAGGCACG, the “PBM E-score” value rises from -0.119 to -0.0709.

Going from AGATTGGC to AAGGCCGC, the “PBM E-score” value rises from -0.0735 to 0.135.

Compared with AGAGCAGG, TATCGAGA is higher in “PBM E-score” value: -0.16 for the first, -0.129 for the second.

Compared with CCCAGGGG, ACAAGACT is higher in “PBM E-score” value: -0.255 for the first, -0.232 for the second.

Going from GGTAGCCA to CTTCGAGC, the “PBM E-score” value rises from -0.261 to 0.108.

Going from AAAATCTC to CTGACCAC, the “PBM E-score” value rises from -0.105 to -0.0825.

Going from GCCAAGAC to ATTCGCCA, the “PBM E-score” value rises from -0.191 to -0.0888.

Compared with CGGCTCAA, TCACCTCA is lower in “PBM E-score” value: 0.254 for the first, -0.177 for the second.

Going from TATTGTAA to GGATTCAC, the “PBM E-score” value rises from -0.143 to 0.123.

Going from ATTGGCTG to AGGCCTCC, the “PBM E-score” value rises from -0.207 to -0.188.

Going from GCTAACCA to AGCCCTAG, the “PBM E-score” value falls from -0.163 to -0.308.

Going from ATGCTAAT to CATTAAAA, the “PBM E-score” value rises from -0.0668 to 0.111.

Compared with CGTGATGA, GAGCTTAC is higher in “PBM E-score” value: -0.246 for the first, 0.0306 for the second.

First: CGCCGGGC
Second: GGAGGCCC
The “PBM E-score” value of the first is higher: 0.332 for the first, 0.0229 for the second.

Going from AAGTCGCT to CCCGGGGC, the “PBM E-score” value rises from -0.0241 to 0.33.

First: ATGTACAC
Second: GAACCATC
The “PBM E-score” value of the first is lower: -0.246 for the first, -0.00394 for the second.

Going from CACGCGGA to CCCTGACG, the “PBM E-score” value falls from 0.312 to -0.0305.

Compared with AACTCAGT, GCGGATAA is higher in “PBM E-score” value: -0.0361 for the first, 0.294 for the second.

Going from GACCAAAA to CCACCCAG, the “PBM E-score” value falls from 0.0136 to -0.0588.

Compared with CCGCCAAA, AACTACAC is lower in “PBM E-score” value: 0.0722 for the first, -0.0317 for the second.

Compared with TACACAAA, GGGGTAGA is higher in “PBM E-score” value: -0.0107 for the first, 0.106 for the second.

Compared with GCTCTTAA, CCTGTGAA is lower in “PBM E-score” value: 0.163 for the first, -0.172 for the second.

Going from GATAGTCA to GTATGGAA, the “PBM E-score” value falls from 0.00299 to -0.156.

Compared with AATAGCTA, ATCTATAA is lower in “PBM E-score” value: -0.119 for the first, -0.131 for the second.

Going from AAAGCATA to GGGCTCCA, the “PBM E-score” value rises from -0.195 to -0.165.
